# Screen size: about 310,000 compounds; about 2,200 (0.71%) showed an effect of 50% or more. Effects have a minus sign here. The list shows a part of the results.
# Molecular target: human ether-à-go-go-related gene (hERG) potassium channel (human, UniProt Q12809)
# Experiment: primary screen, population patch clamp on CHO cells stably expressing hERG
# human ether-à-go-go-related gene (hERG) potassium channel, sequence (Q12809 whole entry, looked up): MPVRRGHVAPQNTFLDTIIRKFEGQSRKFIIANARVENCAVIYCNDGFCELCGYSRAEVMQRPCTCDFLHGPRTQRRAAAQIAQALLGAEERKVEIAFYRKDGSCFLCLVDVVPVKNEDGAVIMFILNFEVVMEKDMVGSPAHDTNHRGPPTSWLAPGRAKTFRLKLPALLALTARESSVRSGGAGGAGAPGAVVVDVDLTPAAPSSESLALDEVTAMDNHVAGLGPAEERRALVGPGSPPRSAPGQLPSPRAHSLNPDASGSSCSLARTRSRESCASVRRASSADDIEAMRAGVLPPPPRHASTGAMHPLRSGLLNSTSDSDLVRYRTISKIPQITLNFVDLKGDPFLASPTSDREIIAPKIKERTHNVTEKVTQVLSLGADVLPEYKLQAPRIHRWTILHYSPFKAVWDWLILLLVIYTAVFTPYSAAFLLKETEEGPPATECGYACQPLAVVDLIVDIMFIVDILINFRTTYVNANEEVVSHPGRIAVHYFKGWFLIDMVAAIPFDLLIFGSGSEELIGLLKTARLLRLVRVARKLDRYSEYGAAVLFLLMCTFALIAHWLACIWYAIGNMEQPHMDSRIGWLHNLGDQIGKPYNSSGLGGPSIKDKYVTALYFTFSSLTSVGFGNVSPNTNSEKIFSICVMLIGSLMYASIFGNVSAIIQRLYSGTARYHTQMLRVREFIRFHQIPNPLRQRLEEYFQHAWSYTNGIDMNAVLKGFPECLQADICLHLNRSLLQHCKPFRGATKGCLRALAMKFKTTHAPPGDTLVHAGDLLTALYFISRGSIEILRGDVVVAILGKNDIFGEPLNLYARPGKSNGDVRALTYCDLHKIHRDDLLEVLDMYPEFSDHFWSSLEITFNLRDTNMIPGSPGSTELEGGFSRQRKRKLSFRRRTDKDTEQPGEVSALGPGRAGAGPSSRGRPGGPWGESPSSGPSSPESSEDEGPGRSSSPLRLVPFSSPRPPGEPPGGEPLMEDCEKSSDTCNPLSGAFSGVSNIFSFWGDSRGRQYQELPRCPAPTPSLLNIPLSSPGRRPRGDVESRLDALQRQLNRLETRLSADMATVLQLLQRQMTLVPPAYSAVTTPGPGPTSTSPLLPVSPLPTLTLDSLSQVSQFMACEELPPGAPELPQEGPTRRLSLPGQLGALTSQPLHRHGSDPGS
row,Structure (SMILES),"hERG current change (%, negative = inhibition) at 1uM [%]"
1,COc1cc2cc(CN(Cc3ccc4c(c3)OCO4)C(=O)c3ccco3)c(=O)[nH]c2cc1OC,-9.98
2,O=C(Nc1ccc(NC(=O)c2sc3ccccc3c2Cl)cc1Cl)c1ccco1,5.48
3,CCOC(=O)c1cnc2ccccc2c1NCCO,-15.2
4,CCn1c(SCC(N)=O)nnc1C(C)C,15.1
5,Cc1ccccc1N(CC(=O)N/N=C/c1cc(Br)c(C)o1)S(C)(=O)=O,0.398
6,COc1ccc(-c2nc(SC(C)C(=O)Nc3ccc(NC(C)=O)cc3)n[nH]2)cc1 (stereo not shown),7.74
7,CC(=O)N1CCOc2ccc(S(=O)(=O)NCCc3ccc(Cl)cc3)cc21,15.4
8,CC(C)(C)NC(=O)CCN(/N=C/c1ccccc1F)C1=NS(=O)(=O)c2ccccc21,14.2
9,CCOc1cc(C(=O)Nc2cc3c(cc2N2CCCC2)n(C)c(=O)n3C)cc(OCC)c1OCC,9.85
10,CC1CCCC(C)N1C(=O)COC(=O)c1cc(S(=O)(=O)N2CCOCC2)ccc1Cl (stereo not shown),-3.42
11,Cc1cnc(CNC(=O)CC2C(=O)NCCN2Cc2ccccc2C(F)(F)F)cn1 (stereo not shown),13.7
12,O=C(CSc1nc2ccccc2n1Cc1ccc(Cl)cc1)N/N=C/c1ccc(C(=O)O)cc1,8.83
13,COc1ccccc1C/C(N)=N/OC(=O)COc1cc(C)cc(C)c1C,-0.621
14,CC(C)(C)N(Cc1ccccc1)C(=O)CSc1ncn[nH]1,14.2
15,OCCC1CN(Cc2nc3ccccc3s2)CCN1C1CCCC1 (stereo not shown),-15.2
16,N=c1c2c(-c3ccccc3)c(-c3ccccc3)oc2ncn1CCCN1CCOCC1,-84.5
17,Cc1cc(C(=O)COc2ncnc3sccc23)c(C)n1C1CC1,13.4
18,COc1ccc(CCNCc2ccc(Br)cc2)cc1OC.O=C(O)C(=O)O,-40.5
19,C=C(C)COc1ccc2oc(C)c(C(=O)OCCOC)c2c1,20.6
20,CC(=O)Nc1ccc(C(=O)Cn2nnc3ccccc3c2=O)cc1,7.25
21,CCC(=O)N1CCN(c2cc(NCC3CCCO3)c(F)cc2[N+](=O)[O-])CC1 (stereo not shown),20.9
22,CN(C)Cc1c(O)ccc2c(=O)c(-c3ccc(Cl)cc3)coc12,11.7

row,Structure (SMILES),"hERG current change (%, negative = inhibition) at 1uM [%]"
1,COc1ccccc1C(=O)N1CCN(c2nc3cc(C)c(C)cc3cc2C#N)CC1,10.5
2,Cc1cccc(Nc2ncc3c(n2)CC(C)CC3=O)c1 (stereo not shown),7.18
3,O=C(CSc1cccc[n+]1[O-])NCC1CCCCC1,37.7
4,COc1ccccc1/C=C/C=C1\Oc2c(ccc(O)c2CN2CCN(CCO)CC2)C1=O,10
5,COc1cc(NC(=O)CN2C(=O)c3ccccc3S2(=O)=O)c(OC)cc1Cl.Cl,4.94
6,COC(=O)C(C)Nc1cccc(Br)c1 (stereo not shown),9.09
7,CCS(=O)(=O)Nc1ccccc1C(N)=O,19.6
8,Br.C=CCN1C(c2ccc(OCC)cc2)=CS/C1=C(\C#N)c1nnc2n1CCCCC2,-1.79
9,Cc1ccc2c(C)ccc(O)c2n1,11.6
10,Cc1ccc(C(=O)NCC(=O)NCC(c2cccs2)N2CCOCC2)cc1C (stereo not shown),-1.02
11,Cc1cc(=O)[nH]c2nnnn12,9.97
12,CCOc1ccc2[nH]c(=O)c(CN(CCCN3CCOCC3)Cc3nnnn3Cc3ccc(OC)cc3)cc2c1,6.01
13,CC(=NCc1ccco1)c1c(C(F)(F)F)[nH]n(-c2nc3ccccc3s2)c1=O,1.02
14,COc1ccc(OC)c(S(=O)(=O)N2c3cc(F)ccc3CCC2C)c1 (stereo not shown),11.8
15,O=C(O)CN1C(=O)/C(=C\c2ccccc2OCc2ccc(Cl)cc2)SC1=S,17.7
16,N#CC1=C(N)Oc2cc3ccccc3cc2C1c1cccs1 (stereo not shown),15.5
17,Cc1ccc(C(=O)Nc2nnc(S(=O)(=O)N3CCCCCC3)s2)cc1,4.28
18,O=C(CSc1nc2[nH]ncc2c(=O)[nH]1)NCc1ccc(F)cc1,13.2
19,Cn1c(N)c(C(=O)CSc2nc3ccccc3[nH]2)c(=O)n(C)c1=O,5.76
20,O=C(C1CCC(=O)N(C2CCCC2)C1)N1CCN(c2ccc(Cl)cc2)CC1 (stereo not shown),-15.6
21,COc1ccccc1NC(=O)Nc1cccc(NC(C)=O)c1,12
22,O=S(=O)(Nc1ccon1)c1ccc(Br)cc1,14

row,Structure (SMILES),"hERG current change (%, negative = inhibition) at 1uM [%]"
1,Cc1cccc(-c2nc(C#N)c(N3CCCCCC3)o2)c1,10.7
2,CCOC(=O)C1=C(C)Nc2ncnn2C1c1ccc(N(C)C)cc1 (stereo not shown),0.518
3,CCN(CC)c1ccc(CNc2nc3ccccc3n2CCN2CCOCC2)cc1,-76.1
4,C[C@]12CC[C@@H]3c4ccc(O[C@@H]5O[C@H](C(=O)[O-])[C@@H](O)[C@H](O)[C@H]5O)cc4CC[C@H]3[C@@H]1C[C@@H](O)[C@@H]2O.[Na+],18
5,COc1ccc(-n2ccnc2SCC(=O)NCc2ccco2)c(OC)c1,6.29
6,O=C(O)CSc1cc(NS(=O)(=O)c2ccc(Br)cc2)c2ccccc2c1O,11.8
7,Cc1cccc(NC(=S)N2CCn3cccc3C2c2cccnc2)c1 (stereo not shown),-0.473
8,Cc1noc(C)c1COc1ccc(C(=O)NCCc2ccc(F)cc2)cc1,17.2
9,COc1cccc(CNC(=O)Cn2nc(C)c3c(C)n(-c4ccc(C)cc4)nc3c2=O)c1OC,18
10,Cc1c(CC(=O)O)c(=O)oc2c(C)c(OCc3ccc(F)cc3Cl)ccc12,13.6
11,CCCCCC(=O)Nc1cccc(S(=O)(=O)NC2=NCCC2)c1,14.8
12,COc1ccccc1CN1CCNC(=O)C1CC(=O)N(C)Cc1nc(C)cs1 (stereo not shown),17.2
13,Cn1c(CCCCCN)nc2ccccc21,18.3
14,CC(OC(=O)CC1CCCCC1)C(=O)Nc1ccc(F)cc1 (stereo not shown),9.09
15,COc1cccc(CNC(=O)Cn2ccc([N+](=O)[O-])n2)c1,16.9
16,COc1ccc(C(C)=O)cc1COC(=O)c1cc(C)nc2ccccc12,16.9
17,O=C(CNC(=O)c1ccccc1)Nc1ccc(Br)cc1C(=O)c1ccccc1,3.35
18,CN1CCN(S(=O)(=O)c2ccc(NC(=O)c3ccccc3Cl)cc2)CC1,13.2
19,CCC(=NCc1cccnc1)c1c(O)n(-c2ccccc2)c(=O)[nH]c1=O,1.32
20,Cc1cccc(Nc2nnc(SCC(=O)c3ccc(O)cc3O)s2)c1,-5.82
21,O=C(CSc1ccc(F)cc1)Nc1ccccc1N1CCOCC1,8.17
22,Cc1csc(NC(=O)C2CCCN(S(=O)(=O)c3cnc[nH]3)C2)n1 (stereo not shown),24

row,Structure (SMILES),"hERG current change (%, negative = inhibition) at 1uM [%]"
1,CCN(Cc1cc(=O)n2ccsc2n1)c1cccc2ccccc12,13.1
2,COc1ccccc1CCNC(=O)Cc1cccs1,5.49
3,CCCCCN(C(=O)CCC(=O)OCc1cc(C(C)=O)ccc1OC)c1c(N)n(CCCC)c(=O)[nH]c1=O,-11.7
4,CCN(CC)c1ccc(NC(=O)c2ccc(=O)[nH]c2)cc1S(=O)(=O)Nc1ccc(OC)cc1,5.38
5,O=C(O)c1cc2c([nH]c1=O)CCCC2,11.6
6,CC(=O)C1C(c2ccccc2OC(F)F)NC(=O)NC1(O)C(F)(F)F (stereo not shown),9.23
7,COc1cccc(N2CCN(C3CC(=O)N(c4ccc(Cl)cc4)C3=O)CC2)c1 (stereo not shown),-9.45
8,CCOC(=O)c1ccccc1-n1c(C)cc(C2N=C(N)Nc3nc4ccccc4n32)c1C (stereo not shown),5.83
9,Cc1cccc(N2CCN(C(=O)CCn3c(=O)[nH]c4ccsc4c3=O)CC2C)c1 (stereo not shown),15
10,COc1c(Cl)cc(Cl)cc1C(=O)Nc1ccc(NC(C)=O)cc1,5.36
11,CC(C(=O)NCc1ccccc1)N1CCN(c2ccc(F)cc2)CC1 (stereo not shown),1.84
12,C/C(=C\c1ccccc1)C(=O)NCCN1CCOCC1,11.7
13,Cc1ccc(CC(=O)Nc2ccc(S(=O)(=O)Nc3nccc(C)n3)cc2)cc1,5.86
14,CNC(=O)Cn1nc(-c2ccc(C)cc2)c2ccccc2c1=O,1.96
15,Cc1cc(C)n(CC(O)COc2ccc(F)cc2)n1 (stereo not shown),9.53
16,O=C1CC2OCC=C3CN4CCC56c7cc([N+](=O)[O-])ccc7N1C5C2C3CC46 (stereo not shown),0.781
17,Cc1ccc(CNC(=O)CSCc2ccccc2F)cc1,12
18,COc1ccc(-c2n[nH]c(=S)n2-c2ccc(Br)cc2)cc1OC,16.7
19,CCCCN(Cc1ccco1)S(=O)(=O)c1c[nH]c(C(=O)OC)c1,12.5
20,COc1ccc(NC2CCCN(C(=O)c3ccc4[nH]c(C)c(C)c4c3)C2)cc1 (stereo not shown),9.71
21,CCc1ccc(C2C(C#N)=C(N)N(N3CCOCC3)C3=C2C(=O)CC(C)(C)C3)s1 (stereo not shown),10.4
22,COC(=O)Cn1c(=NC(=O)CSCC(=O)Nc2cc(C)on2)sc2ccccc21,15.3

# Reference: PMC4336329 (PLoS ONE, 2015)
